Tests used:
[1] = target: T1, cynomolgus monkey B7-H7 on the cell surface (cynomolgus monkey); test: flow cytometry, HEK-293/cyno B7-H7 cells
T1 construct: whole, on cells; also called cyno B7-H7
Experimental: This example was intended to study the in vitro activity of H2L2 monoclonal antibodies against human B7-H7 in binding to human/cynomolgus monkey B7-H7. Since homologous molecules of B7-H7 were not present in mice, the detection was not performed. […] The cells were adjusted to a cell density of 1×10⁶ cells/mL, respectively. The cells were seeded in a 96-well V-bottom plate (Corning, #3894) at 100 μL/well, and the antibody to be tested at 2× final concentration with 3-fold concentration gradient dilution was then added at 100 μL/well. The cells were incubated at 4° C. for 2 hours in the dark. After the incubation, the cells were rinsed twice by adding pre-chilled PBS containing 2% BSA at 100 μl/well, and centrifuged at 500 g at 4° C. for 5 minutes, and the supernatant was discarded. […] The cells were washed twice by adding pre-chilled PBS containing 2% BSA at 100 μL/well, and centrifuged at 500 g at 4° C. for 5 minutes, and the supernatant was discarded. Finally, the cells were resuspended in pre-chilled PBS containing 2% BSA at 200 μL/well, and the fluorescence signal values were read using an ACEA Novocyte3000 flow cytometer.

[2] = target: T2, biotinylated human B7-H7 protein (Acro Biosystems, B77-H82F5) (human, UniProt Q9UM44 23-344, biotinylated); test: flow cytometry, blocking of biotinylated human B7-H7 binding to HEK-293/CD28H cells
T2 construct: Bought soluble protein; also called biotin-B7H7 protein
T2 sequence (looked up): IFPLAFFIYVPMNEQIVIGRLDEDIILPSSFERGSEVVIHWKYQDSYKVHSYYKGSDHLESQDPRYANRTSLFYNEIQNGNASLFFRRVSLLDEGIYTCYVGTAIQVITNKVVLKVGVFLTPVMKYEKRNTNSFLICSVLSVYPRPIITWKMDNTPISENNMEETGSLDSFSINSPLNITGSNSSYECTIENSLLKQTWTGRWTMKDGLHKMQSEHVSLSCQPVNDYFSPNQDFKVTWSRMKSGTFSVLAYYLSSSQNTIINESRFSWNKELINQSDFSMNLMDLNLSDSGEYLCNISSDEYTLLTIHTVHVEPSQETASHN
Experimental: This example was intended to study the in vitro blocking activity of human anti-B7-H7 antibodies against the binding of human B7-H7 to its receptor CD28H. […] The cells were adjusted to a cell density of 1×10⁶ cells/mL. […] The cells were incubated at 4° C. for 1 hour in the dark. […] The cells were rinsed twice by adding pre-chilled PBS containing 2% BSA at 100 μL/well, and were centrifuged at 500 g at 4° C. for 5 minutes, and the supernatant was discarded. A fluorescent secondary antibody (PE Streptavidin, BD, Cat #: 554061, 1:200) was added at 100 μL/well, and the cells were incubated at 4° C. for 30 minutes in the dark. The cells were washed twice by adding pre-chilled PBS at 200 μL/well, and centrifuged at 500 g at 4° C. for 5 minutes, and the supernatant was discarded. Finally, the cells were resuspended in pre-chilled PBS at 200 μL/well, and the fluorescence signal values were read using an ACEA Novocyte3000 flow cytometer. IC50 was calculated.

[3] = target: T2, biotinylated human B7-H7 protein (Acro …); test: BLI epitope competition on SA-captured biotinylated B7-H7; competitor (first antibody) PR003249
Experimental: Epitope competition experiments were performed on the anti-B7-H7 antibodies using the ForteBio Octet Red96e platform with the same experimental buffer as described above. […] After being equilibrated in a buffer for 120 s, the sensors were immersed in various antibodies diluted to 100 nM for 240 s, and the final signal of the antibody binding to B7-H7 was recorded as the 100% signal for that antibody. Second step, epitope competition experiment: B7-H7 was captured using SA sensors at a capture height of 0.25 nm. The sensors were immersed in a first antibody (concentration: 100 nM) for 240 s, then the SA sensors were immersed in a mixture of the first antibody and a second antibody (final concentration of both antibodies: 100 nM) for 240 s, and the difference in signals before and after immersing the sensors in the mixture of the two antibodies was recorded as the signal for that antibody as the second antibody. The inhibition rate was calculated by the following equation, […]

- EC50 [1]: 0.421 nM
- Maximum MFI [1]: 419000 MFI
- IC50 [2]: 1.43 nM
- Maximum inhibition rate (%) [2]: 101%
- Competitive inhibition rate (%) [3]: 110%
B1: PR003259 (antibody, human IgG1, kappa)
heavy: QVQLVESGGGVVQPGRSLRLSCAASGFTFSNYGMHWVRQVPGKGLEWVAVIWYDGSEKDYADSVKGRFTISRDNSKNTLYLQMNSLRVEDTAVYYCAKDLISGIYYVDHWGQGTLVTVSS[not shown - human IgG1 constant region]
light: DIQMTQSPSSLSASVGDRVTITCRASQGISNYLAWYQQKPGKVPKLLIYAASTLQSGVPSRFSGSGSGTDFTLTISSLQPEDVATYYCQKYNSAPFTFGPGTKVDIKRTVAAPSVFIFPPSDEQLKSGTASVVCLLNNFYPREAKVQWKVDNALQSGNSQESVTEQDSKDSTYSLSSTLTLSKADYEKHKVYACEVTHQGLSSPVTKSFNRGEC
notes: Human IgG1; also called 68F3A2

From US20250136696A1 (HARBOUR BIOMED SHANGHAI, published 2025)
